# According to PubChem BioAssay AID588579 (National Center for Advancing Translational Sciences (NCATS), 2011):
# The campaign covered roughly 400,000 compounds. About 2,200 (0.55%) were called active. Inconclusive results, whose numbers are uncertain, are shown with a selection of clear calls. Calls follow the shape of the dose curve; as a rule, active = well fitted inhibition curve with a large enough effect; inconclusive = small, poorly fitted or top-dose-only effect, or another doubt; inactive = no such curve, though single readings can be large or run the other way. Potencies beside an inconclusive call are fits to weak or partial responses and may not hold up.
# Molecular target: DNA polymerase kappa (Homo sapiens) (UniProt Q9UBT6)
# Sequence of UniProt Q9UBT6 (Q9UBT6 whole entry, looked up): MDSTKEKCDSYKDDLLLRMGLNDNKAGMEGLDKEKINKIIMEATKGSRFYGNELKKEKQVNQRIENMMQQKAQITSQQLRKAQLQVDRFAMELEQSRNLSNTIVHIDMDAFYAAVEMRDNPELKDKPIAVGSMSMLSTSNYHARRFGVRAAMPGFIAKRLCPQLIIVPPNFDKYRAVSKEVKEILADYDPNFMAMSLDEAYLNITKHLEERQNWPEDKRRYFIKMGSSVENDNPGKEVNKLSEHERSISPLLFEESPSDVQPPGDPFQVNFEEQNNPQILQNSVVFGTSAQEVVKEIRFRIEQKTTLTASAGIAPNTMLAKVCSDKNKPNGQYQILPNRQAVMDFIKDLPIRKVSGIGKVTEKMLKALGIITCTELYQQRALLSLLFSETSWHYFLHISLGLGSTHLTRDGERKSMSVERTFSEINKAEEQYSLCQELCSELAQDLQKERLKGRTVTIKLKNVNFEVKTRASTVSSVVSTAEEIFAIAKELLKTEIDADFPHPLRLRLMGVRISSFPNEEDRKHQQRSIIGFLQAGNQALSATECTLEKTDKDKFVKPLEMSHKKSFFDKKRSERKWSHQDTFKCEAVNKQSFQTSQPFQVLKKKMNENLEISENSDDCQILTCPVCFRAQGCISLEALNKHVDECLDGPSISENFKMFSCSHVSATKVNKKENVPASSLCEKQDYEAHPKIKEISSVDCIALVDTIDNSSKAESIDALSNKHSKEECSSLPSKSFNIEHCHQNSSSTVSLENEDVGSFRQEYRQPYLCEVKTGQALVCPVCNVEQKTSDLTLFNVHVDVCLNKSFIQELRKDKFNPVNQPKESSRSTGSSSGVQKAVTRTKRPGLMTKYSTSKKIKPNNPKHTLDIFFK
# Assay: qHTS for Inhibitors of Polymerase Kappa
# Details: purified Pol kappa, fluorescent DNA synthesis assay, 10 min; series mostly up to 107 µM; activity, negative = inhibition: at the top concentration
# How it was run: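 Readout: fluorescence, taken kinetically at 0 and 10 min. Conditions: 10 nM Pol kappa, 15 min RT compound preincubation, 50 nM substrate final. Controls: enzyme-free buffer wells.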
# % is scaled to controls: 0 for no effect and ±100 for the full control effect; potency is read from the fitted curve at half-maximal effect; tags tell the direction and shape of the fitted curve.
SMILES,Potency,"activity, negative = inhibition"
COc1ccc(-c2cc(OC(=O)c3ccccc3C)c3c(C)oc(C)c3c(=O)c2)cc1,"inconclusive: 89.1 µM [inhibitor, partial curve, poor fit]",–
CC1=C(C(=O)O)N2C(=O)C(NC(=O)C(N)C3=CCC=CC3)C2SC1 (configuration not stated),"inconclusive: 35.5 µM [inhibitor, single point]",–
NC(=O)c1ccsc1NC(=O)c1ccc([N+](=O)[O-])o1,active: 79.4 µM,–
O=C(O)CC1(CC(=O)Nc2ccc(Br)cc2)CCCCC1,"inconclusive: 89.1 µM [inhibitor, single point]",–
O=C(O)c1ccc(COc2ccc3c4c(c(=O)oc3c2)CCC4)o1,"inconclusive: 100 µM [inhibitor, single point]",–
O=C(/C=C/c1ccc(F)cc1)NCc1ccco1,–,inactive: -33.9%
COc1ccc(C)cc1NC(=O)C(NS(=O)(=O)c1cccs1)c1ccccc1 (configuration not stated),"inconclusive: 89.1 µM [inhibitor, single point]",–
CN(CC(=O)NC(=O)NCc1ccco1)Cc1nc2ccccc2c(=O)[nH]1,"inconclusive: 100 µM [inhibitor, single point]",–
O=C(OC1CCOC1=O)c1ccc(Cl)c(S(=O)(=O)N2CCOCC2)c1 (configuration not stated),"inconclusive: 89.1 µM [inhibitor, partial curve, poor fit]",–
O=C1OCCN1C(=O)[C@H]1[C@H](c2ccccc2)C(c2ccc(F)cc2)=NN1c1ccccc1,"inconclusive: 44.7 µM [inhibitor, partial curve, poor fit]",–
CCCCn1c(SCC(=O)c2ccc(OC)cc2OC)nc2cc(S(N)(=O)=O)ccc21,"inconclusive: 100 µM [inhibitor, single point]",–
CN(C)C(CNC(=O)c1ccc2nccnc2c1)c1ccco1 (configuration not stated),"inconclusive: 89.1 µM [inhibitor, single point]",–
O=C(/C=C/c1ccco1)N1CCCC(c2ccccc2)C1 (configuration not stated),"inconclusive: 89.1 µM [inhibitor, partial curve, poor fit]",–
Cc1ccc(-n2cccc2/C=C2/C(=N)N3C(=NC2=O)SN=C3S(C)(=O)=O)cc1,"inconclusive: 89.1 µM [inhibitor, single point]",–
COc1ccc(NC(=O)Cc2nnc(SCC(=O)NC3CCCCC3C)n2C)cc1 (configuration not stated),"inconclusive: 89.1 µM [inhibitor, partial curve, poor fit]",–
C=CCn1c(Cc2cccs2)nnc1SCC(=O)NCc1ccco1,"inconclusive: 79.4 µM [inhibitor, partial curve, poor fit]",–
C=C(C)C(=O)Nc1cccc(C2=NOC3(C2)C[C@@H](C(N)=O)N(C(=O)c2cc([N+](=O)[O-])cc([N+](=O)[O-])c2)C3)c1 (some centres not stated),"inconclusive: 56.2 µM [inhibitor, partial curve, poor fit]",–
